Test results: PubChem BioAssay AID1347165 (National Center for Advancing Translational Sciences (NCATS), 2019)
The campaign covered roughly 220,000 compounds. About 5,700 (2.6%) were called active. Inconclusive means that the source gave no clear call. Such entries were picked first, then a sample of the others. Calls come from the whole dose curve; as a rule, active = well fitted inhibition curve with a large enough effect; inconclusive = small, poorly fitted or top-dose-only effect; inactive = no such curve, though single readings can be large or run the other way. A potency beside an inconclusive call is a rough fit, not a confirmed value.
Note: nearly all actives have a fitted effect of over 70% in size.
Potency is the fitted concentration of half-maximal effect; tags give direction and shape of the fitted curve.
Throughout, for activity change, negative = inhibition: 0% is about no effect.

The compounds below were run against Lysine-specific demethylase 5B (Homo sapiens) (UniProt Q9UGL1) (assay: Primary screen for KDM5B Histone Demethylases FDH-coupled qHTS). Conditions: FDH-coupled NADH fluorescence (FDH is formaldehyde dehydrogenase); activity change, negative = inhibition: at 57.7 µM (top of the series) unless noted.
Sequence of UniProt Q9UGL1 (Q9UGL1 whole entry, looked up): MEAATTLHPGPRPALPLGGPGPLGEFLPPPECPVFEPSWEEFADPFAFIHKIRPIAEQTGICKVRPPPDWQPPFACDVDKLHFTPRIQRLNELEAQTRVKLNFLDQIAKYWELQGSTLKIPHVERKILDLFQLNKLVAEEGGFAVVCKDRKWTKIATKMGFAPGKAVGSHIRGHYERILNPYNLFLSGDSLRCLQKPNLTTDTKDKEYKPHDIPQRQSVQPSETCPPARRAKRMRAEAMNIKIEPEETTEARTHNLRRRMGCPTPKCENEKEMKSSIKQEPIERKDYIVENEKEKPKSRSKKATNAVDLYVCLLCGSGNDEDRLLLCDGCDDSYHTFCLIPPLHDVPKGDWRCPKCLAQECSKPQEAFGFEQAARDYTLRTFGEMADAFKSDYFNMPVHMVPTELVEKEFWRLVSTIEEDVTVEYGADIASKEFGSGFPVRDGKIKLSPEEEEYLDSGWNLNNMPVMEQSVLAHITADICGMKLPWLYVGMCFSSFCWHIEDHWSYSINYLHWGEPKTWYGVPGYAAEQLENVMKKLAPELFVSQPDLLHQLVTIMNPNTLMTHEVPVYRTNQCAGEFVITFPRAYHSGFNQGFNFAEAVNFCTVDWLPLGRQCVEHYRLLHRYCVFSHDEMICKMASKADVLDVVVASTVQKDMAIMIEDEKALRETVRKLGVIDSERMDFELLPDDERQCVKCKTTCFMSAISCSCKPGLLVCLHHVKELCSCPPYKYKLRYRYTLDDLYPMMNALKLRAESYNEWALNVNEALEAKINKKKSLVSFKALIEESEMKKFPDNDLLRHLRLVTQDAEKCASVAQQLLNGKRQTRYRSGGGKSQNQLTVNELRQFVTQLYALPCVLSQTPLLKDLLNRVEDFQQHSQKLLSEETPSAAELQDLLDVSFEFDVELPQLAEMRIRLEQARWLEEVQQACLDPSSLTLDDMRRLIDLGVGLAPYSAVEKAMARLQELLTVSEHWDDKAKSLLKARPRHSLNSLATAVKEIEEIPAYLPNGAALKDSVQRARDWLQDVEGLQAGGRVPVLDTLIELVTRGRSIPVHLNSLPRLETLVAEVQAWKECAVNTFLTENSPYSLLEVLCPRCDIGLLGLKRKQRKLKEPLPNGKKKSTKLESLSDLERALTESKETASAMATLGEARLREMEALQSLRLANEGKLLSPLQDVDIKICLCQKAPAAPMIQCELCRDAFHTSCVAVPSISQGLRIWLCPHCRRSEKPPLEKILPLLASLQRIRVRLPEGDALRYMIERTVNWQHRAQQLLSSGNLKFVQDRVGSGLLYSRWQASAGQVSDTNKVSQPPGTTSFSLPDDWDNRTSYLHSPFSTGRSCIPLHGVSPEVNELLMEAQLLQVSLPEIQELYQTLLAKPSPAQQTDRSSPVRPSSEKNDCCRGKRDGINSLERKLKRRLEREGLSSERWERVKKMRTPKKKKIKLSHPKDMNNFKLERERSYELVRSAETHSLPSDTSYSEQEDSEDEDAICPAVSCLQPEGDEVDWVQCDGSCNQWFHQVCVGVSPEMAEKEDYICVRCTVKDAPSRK
Procedure, shortened: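 Compound dilutions met 200 nM (final) KDM5BΔAP for 10 min at room temperature before substrate addition. The substrate mix held 12.5 µM H3K4me3 with cofactors 25 µM α-ketoglutarate and 50 µM Fe²⁺. NADH signal gain over 30 min defined activity.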
In the case of `CCc1c(-c2nc(C3CCOC3)no2)[nH]c2ccccc12` (stereo not drawn), the Potency is reported as inconclusive: 28.2 µM [inhibitor, partial curve, poor fit]. In the case of `O=C(Cc1ccncc1)N1CC(F)(F)C[C@H]1c1nc(C2CC2)no1`, the Potency is reported as “inactive”. `c1cc(-c2ccc(CN3CCC4(CCNCC4)C3)o2)[nH]n1` was tested, and the Potency was inconclusive: 11.2 µM [inhibitor, partial curve, poor fit]. With `O=C(Cc1n[nH]c(=O)c2ccccc12)NCCOc1cccc(Cl)c1` the Potency was “inactive”. `Cc1cc(C)nc(NS(=O)(=O)c2ccc(CC(C)C)cc2)c1` was tested, and the Potency was inconclusive: 31.6 µM [inhibitor, partial curve, poor fit]. With `O=C(NCCc1cnn(-c2ccccc2)c1)C1NCCc2[nH]cnc21` (stereo not drawn) the Potency was “inactive”. In the case of `O=C1CC(c2ccc3c(c2)OCO3)c2c(c3ccccc3[nH]c2=O)O1` (stereo not drawn), the Potency is reported as “inactive”. In the case of `CCOc1ccc(NC(=O)CSc2nnc(CNC(=O)C34CC5CC(CC(C5)C3)C4)n2CC)cc1`, the activity change, negative = inhibition is reported as inconclusive: -36.3% [inhibitor]. With `CCOC(=O)c1ccccc1NC(=O)Nc1cc2c(cc1N1CCCC1)n(C)c(=O)n2C` the Potency was inconclusive: 3.16 µM [inhibitor, partial curve, poor fit]. In the case of `O=C(Nc1ccc2nc(SCC(=O)N3CCOCC3)sc2c1)c1ccc(Br)cc1`, the Potency is reported as inconclusive: 39.8 µM [inhibitor, single point]. In the case of `COc1ccc(C(=O)Nc2cc(-c3nc4ccccc4s3)ccc2OC)cc1`, the Potency is reported as inconclusive: 3.16 µM [inhibitor, full curve, poor fit]. For `CN(C)CC(=O)N1CCC2(C1)CN(C)c1ccc(C(=O)NCc3ccccc3)cc12` (stereo not drawn), the Potency was active: 35.5 µM. In the case of `C=Cc1ccc(Cn2c(C(=O)O)c(CNC3CCCCC3)c3ccc(OC)cc32)cc1`, the Potency is reported as inconclusive: 15.8 µM [inhibitor, partial curve, poor fit]. For `CCCOC1(C(F)(F)F)NC(=O)N(c2cccc(Cl)c2)C1=O` (stereo not drawn), the Potency was inconclusive: 1 µM [inhibitor, partial curve, poor fit]. In the case of `COc1ccc(C)cc1CCNC(=O)c1ccc(NC(=O)CC2SC(N3CCCC3)=NC2=O)cc1` (stereo not drawn), the Potency is reported as “inactive”. For `CNC(=O)c1ccc(NS(=O)(=O)c2ccc(C(C)(C)C)cc2)cc1`, the Potency was “inactive”. In the case of `O=[N+]([O-])c1ccccc1-c1ccc(/C=N/O)o1`, the Potency is reported as inconclusive: 10 µM [inhibitor, partial curve, poor fit]. `CCOc1ccc(-c2nc(CSCC(=O)NCCc3ccc(OCC)c(OCC)c3)c(C)o2)cc1` was tested, and the Potency was inconclusive: 28.2 µM [inhibitor, partial curve, poor fit]. `C1CNC(c2nc(C3CCOCC3)no2)C1` (stereo not drawn) was tested, and the Potency was inconclusive: 22.4 µM [inhibitor, partial curve, poor fit]. With `COc1ccc2c(C)c(CC(=O)NCCc3ccc(S(N)(=O)=O)cc3)c(=O)oc2c1C` the Potency was inconclusive: 5.62 µM [inhibitor, full curve, poor fit]. In the case of `COc1ccc(-c2nc(C3CC(=O)N(c4ccc(C)cc4)C3)no2)c(OC)c1` (stereo not drawn), the Potency is reported as active: 25.1 µM. With `CCCN1CCN(CC2=C(C(=O)OCC)C(c3ccc(OC(C)C)cc3)NC(=O)N2)CC1` (stereo not drawn) the activity change, negative = inhibition was inconclusive: -38.6% [inhibitor]. `Cc1oc(-c2cccc(C(F)(F)F)c2)cc1C(=O)NC(C)C` was tested, and the Potency was “inactive”. For `O=C(NCCc1ccc(F)cc1)C(=O)NCC(c1ccc2c(c1)OCO2)N1CCOCC1` (stereo not drawn), the activity change, negative = inhibition was inconclusive: -37.8% [inhibitor]. `Cc1ccc2nc(-c3c[nH]c4ccccc34)c(Nc3ccccc3)n2c1` was tested, and the Potency was inconclusive: 28.2 µM [inhibitor, partial curve, poor fit]. With `c1nc(N2CCOCC2)c2c3c(sc2n1)CN(CC1CCCCC1)CC3` the Potency was inconclusive: 15.8 µM [inhibitor, partial curve, poor fit]. `CN1c2cc(C(=O)Nc3cccc(C#N)c3)ccc2C(=O)N2CCCCCC21` (stereo not drawn) was tested, and the Potency was inconclusive: 20 µM [inhibitor, partial curve, poor fit]. `Cc1ccc(C(C)C)c(OCC(=O)Nc2nc3c(s2)CCCC3)c1` was tested, and the Potency was inconclusive: 5.01 µM [inhibitor, partial curve, poor fit]. In the case of `Cc1nn(CC(=O)Nc2ccc(N3CCCC3)cc2)c(=O)c2ccccc12`, the Potency is reported as “inactive”. `Cn1nccc1-c1ccc2ncn(-c3ccc(F)cc3F)c(=O)c2n1` was tested, and the Potency was active: 39.8 µM. For `Cc1cc(C)n(-c2ccc(CSc3cccc[n+]3[O-])cc2)n1`, the Potency was “inactive”. For `COc1ccc(S(=O)(=O)Nc2cc(-c3cn4cccc(C)c4n3)ccc2C)cc1C`, the Potency was inconclusive: 22.4 µM [inhibitor, partial curve, poor fit]. `COCCn1c(C)cc(C(=O)Cn2cnc3c2c(=O)n(C)c(=O)n3C)c1C` was tested, and the Potency was “inactive”. `CN(CC(=O)NC(=O)NC1CC1)c1ccc(C(C)(C)C)cc1` was tested, and the Potency was “inactive”. With `CCc1noc(-c2ccn3c(CNC(=O)Cc4ccccc4Cl)nnc3c2)n1` the Potency was active: 15.8 µM. With `COc1ccc2[nH]c3c(c2c1)CCNC31CCN(C(=O)C2CC=CC2)CC1` the Potency was active: 22.4 µM. In the case of `Cc1ccc(CCNC(=O)c2cc3sccc3n2Cc2ccc(Cl)cc2)cc1`, the activity change, negative = inhibition is reported as inconclusive: -35% [inhibitor]. With `CC1Sc2ccc(C(=O)Nc3nc(-c4ccc(F)cc4)cs3)cc2NC1=O` (stereo not drawn) the Potency was inconclusive: 25.1 µM [inhibitor, partial curve, poor fit]. With `C#CCNC(=O)CC[C@H]1CNC(=O)[C@@H]2[C@@H](CCN2Cc2ncc[nH]2)N1C` the Potency was inconclusive: 17.8 µM [inhibitor, partial curve, poor fit]. In the case of `COc1ccc(-n2cc(C(=O)NCc3ccc(Cl)cc3)c3ccccc3c2=O)cc1`, the Potency is reported as inconclusive: 39.8 µM [inhibitor, single point]. In the case of `Cc1ccc2c(c1)c1c(c(=O)n(-c3ccccc3)c(=O)n1CC(=O)NCCC1=CCCCC1)n2C`, the Potency is reported as inconclusive: 2.82 µM [inhibitor, full curve, poor fit]. With `COc1ccc(N(C(=O)c2ccccc2C)S(=O)(=O)c2ccc(C)cc2)cc1` the activity change, negative = inhibition was inconclusive: -33.8% [inhibitor]. In the case of `CCOC(=O)c1ccc(NC(=O)Cn2c(C)cc3nc4n(c(=O)c32)CCCC4)cc1`, the Potency is reported as inconclusive: 17.8 µM [inhibitor, partial curve, poor fit].
